Data as given in the supplement of paper PMC6531468.
Some of the results follow. Read counts after selection give these values, which scatter widely. Scores sum up all selected molecules that hold the word; the word was not tested alone.

How the values were obtained:
Assay in all cases: 6-mer SELEX enrichment z-score vs GST control; IMP3 is the RNA-binding protein IGF2BP3; higher = more enriched by binding
[1] = tested on: IMP3 RRM1-2; conditions: construct: RRM1-2 (1-163); SELEX round: R2
Experimental: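 SELEX-seq with GST-tagged IMP3 RRM1-2 (Met1-Asn163) and an N40 RNA pool, round 2. 6-mer enrichment z-score normalised to GST SELEX. RNA written as DNA (T = U).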

[2] = molecular target: IMP3 full-length (UniProt O00425); conditions: construct: FL IMP3 (1-579); SELEX round: R4
Chain of UniProt O00425 (O00425 whole entry): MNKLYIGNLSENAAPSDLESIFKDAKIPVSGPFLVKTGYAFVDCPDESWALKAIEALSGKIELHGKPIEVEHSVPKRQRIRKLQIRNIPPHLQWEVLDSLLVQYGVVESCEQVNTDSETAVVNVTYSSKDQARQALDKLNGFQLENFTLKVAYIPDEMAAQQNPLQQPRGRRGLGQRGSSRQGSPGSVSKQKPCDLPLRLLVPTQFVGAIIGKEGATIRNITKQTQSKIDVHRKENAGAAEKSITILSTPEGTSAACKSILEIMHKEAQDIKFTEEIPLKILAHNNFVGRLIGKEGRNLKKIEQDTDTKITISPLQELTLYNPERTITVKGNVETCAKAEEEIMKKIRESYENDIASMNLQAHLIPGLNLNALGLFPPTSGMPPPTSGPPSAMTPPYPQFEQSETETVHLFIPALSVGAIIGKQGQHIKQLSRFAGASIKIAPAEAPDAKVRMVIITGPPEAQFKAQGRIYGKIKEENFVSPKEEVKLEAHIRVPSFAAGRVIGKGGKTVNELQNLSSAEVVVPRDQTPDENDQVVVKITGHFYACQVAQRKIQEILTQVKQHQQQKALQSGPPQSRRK
Experimental: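 SELEX-seq with GST-tagged full-length IMP3 and an N40 RNA pool, round 4. Each 6-mer is scored as an enrichment z-score of sequence tags containing it, normalised to the matching GST SELEX round. RNA written as DNA (T = U).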

[3] = tested on: IMP3 KH1-2; conditions: construct: KH1-2 (164-376); SELEX round: R4
Chain of IMP3 KH1-2 (chain, as listed by the source): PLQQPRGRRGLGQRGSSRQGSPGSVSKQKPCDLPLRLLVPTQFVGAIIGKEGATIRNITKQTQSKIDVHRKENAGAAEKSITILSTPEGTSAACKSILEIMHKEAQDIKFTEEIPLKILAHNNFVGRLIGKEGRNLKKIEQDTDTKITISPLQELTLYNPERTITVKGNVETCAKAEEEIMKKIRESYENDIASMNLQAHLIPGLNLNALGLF
Experimental: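 SELEX-seq with GST-tagged IMP3 KH1-2 (Pro164-Phe376) and an N40 RNA pool, round 4 (stringent 300/600 mM KCl washes). 6-mer z-score of sequence-tag enrichment normalised to the corresponding GST SELEX round; RNA k-mers written as DNA (T for U).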

[4] = tested on: IMP3 KH3-4; conditions: construct: KH3-4 (377-579); SELEX round: R4
Chain of IMP3 KH3-4 (chain, as listed by the source): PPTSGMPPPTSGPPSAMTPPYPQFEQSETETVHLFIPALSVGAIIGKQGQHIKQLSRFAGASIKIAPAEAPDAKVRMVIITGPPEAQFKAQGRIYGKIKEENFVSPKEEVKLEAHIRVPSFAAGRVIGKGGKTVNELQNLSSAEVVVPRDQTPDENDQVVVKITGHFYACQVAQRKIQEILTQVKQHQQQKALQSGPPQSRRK
Experimental: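 SELEX-seq with GST-tagged IMP3 KH3-4 (Pro377-Lys579) and an N40 RNA pool, round 4. 6-mer z-score of sequence-tag enrichment normalised to the corresponding GST SELEX round; RNA k-mers written as DNA (T for U).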

Chain of IMP3 RRM1-2 (chain, as listed by the source): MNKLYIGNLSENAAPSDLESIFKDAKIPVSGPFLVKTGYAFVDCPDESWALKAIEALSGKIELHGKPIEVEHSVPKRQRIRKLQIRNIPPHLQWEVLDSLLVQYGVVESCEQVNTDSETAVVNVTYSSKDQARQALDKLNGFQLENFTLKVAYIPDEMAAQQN

Sequence	6-mer SELEX enrichment z-score [1]	6-mer SELEX enrichment z-score [2]	6-mer SELEX enrichment z-score [3]	6-mer SELEX enrichment z-score [4]
GGTACA	0.186	0.417	-0.311	-0.35
GGAATG	-0.6	-0.095	0.666	1.07
GGCGCT	0.471	0.61	0.021	0.111
ACAACT	0.396	0.112	0.848	0.402
ATAACC	-0.888	-0.74	0.292	-0.112
ATACGA	-0.792	-0.089	0.484	0.523
CAAGAA	-0.875	-0.674	-0.169	0.199
GAGGAG	-0.581	0.313	0.923	0.793
ACAGGA	0.318	1.11	1.24	1.09
GAAGGC	-0.358	0.32	0.06	0.248
CCCGGA	-1.39	-0.898	-1.07	-1.42
CTAATA	-0.447	-0.278	0.894	1.31
CAATGC	0.206	0.232	-0.054	-0.345
CACACG	1.86	2.09	0.667	-0.296
GGCTAG	0.28	0.313	0.032	0.278
TTGCAG	0.166	0.339	0.488	0.412
GCAGGA	0.155	0.931	0.765	0.697
AGAACA	0.333	0.906	1.34	1.7
GGTAAA	-0.689	-0.625	-0.399	0.096
TGTAAC	-0.392	-0.478	-0.129	0.066
CTGACC	-0.908	-1.37	-1.03	-1.56
AATAGA	-1.04	-0.081	1.38	2.28
CGGCCA	0.065	2.65	–	2.49

Sequence	6-mer SELEX enrichment z-score [1]	6-mer SELEX enrichment z-score [2]	6-mer SELEX enrichment z-score [3]	6-mer SELEX enrichment z-score [4]
ATTGAA	-0.842	-0.371	0.606	1.75
CTCGAG	0.633	0.095	-0.568	-0.465
ACGAAT	-1.03	-0.58	0.135	0.711
TCTTCT	0.527	0.277	0.558	0.462
TTTTCT	0.536	0.366	0.931	0.955
TAACCA	-0.143	-0.939	-0.128	-0.374
CGGGTG	0.025	-0.072	-0.537	-0.486
AAAAAT	-2.47	-2.26	0.126	1.75
CACTGC	0.693	0.739	0.824	-0.175
TCAAAG	0.048	-0.256	-0.801	-0.581
ACACTC	1.38	0.239	–	-0.769
AGGAGC	-0.111	0.003	-0.647	-0.533
GGGAGT	-0.083	0.467	0.858	0.807
TGGGCC	0.11	0.078	-0.477	-0.529
GAGGCA	0.033	1.52	0.772	1.04
TTGTCA	0.359	0.19	-0.001	0.169
GCGAAA	-1.32	-1.04	-1.34	-1.03
GCTCAC	0.623	0.596	0.115	-0.226
GCTGTA	-0.004	-0.046	-0.032	0.093
GGCAAC	0.546	1.58	0.107	0.047
TTGACG	-0.37	-0.651	–	-0.775
ACTTCC	-0.01	-0.532	0.403	-0.31
ATTGCT	0.175	0.098	0.516	0.555

Sequence	6-mer SELEX enrichment z-score [1]	6-mer SELEX enrichment z-score [2]	6-mer SELEX enrichment z-score [3]	6-mer SELEX enrichment z-score [4]
GGACCA	1.33	-0.06	-0.427	-0.568
CTCTGT	0.141	0.033	0.131	-0.009
AAAGCT	-0.861	-0.962	-0.879	-0.735
TTAGCG	0.201	-0.368	-0.554	-0.276
TCGCTC	0.404	0.303	0.071	-0.091
AAGGGC	-0.173	0.025	-0.485	-0.03
GCGTTG	0.249	-0.595	-1.14	-0.955
GGATGG	-0.103	0.487	1.07	1.12
TGCTGG	0.163	0.211	0.31	0.278
AGACAG	-0.197	0.571	0.539	0.444
TGTCGG	0.568	1.33	0.653	0.744
GGGAGG	-0.098	0.712	1.62	1.14
GGGGAA	-0.44	0.087	0.941	0.858
GGTTCC	0.273	-0.069	-0.307	-0.332
ATCGTT	0.23	0.086	-0.05	0.128
TACGGG	-0.165	–	0.113	0.174
TCTCAT	0.894	–	0.615	0.359
TACCCC	-0.476	-0.481	–	-1.01
ACGGCA	0.47	–	1.72	1.98
CAGCGG	-0.002	1.2	–	0.382
GACATG	-0.119	0.55	–	0.561
ACCTCA	0.307	–	-0.85	-1.27
